Among all 110,000 compounds or so, about 230 (0.21%) showed an effect of 50% or more. The list shows a part of the results.
target: DPAP1 (Plasmodium falciparum, UniProt Q8IIJ9); test: primary screen, percent inhibition; read by cleavage of a fluorogenic dipeptide substrate; higher = more effect of the substance; design: species or system P. falciparum D10 trophozoite lysates; single well
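Also: 30 min substrate incubation versus DMSO and 10 µM JCP410 controls.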

DPAP1, sequence (Q8IIJ9 whole entry, looked up): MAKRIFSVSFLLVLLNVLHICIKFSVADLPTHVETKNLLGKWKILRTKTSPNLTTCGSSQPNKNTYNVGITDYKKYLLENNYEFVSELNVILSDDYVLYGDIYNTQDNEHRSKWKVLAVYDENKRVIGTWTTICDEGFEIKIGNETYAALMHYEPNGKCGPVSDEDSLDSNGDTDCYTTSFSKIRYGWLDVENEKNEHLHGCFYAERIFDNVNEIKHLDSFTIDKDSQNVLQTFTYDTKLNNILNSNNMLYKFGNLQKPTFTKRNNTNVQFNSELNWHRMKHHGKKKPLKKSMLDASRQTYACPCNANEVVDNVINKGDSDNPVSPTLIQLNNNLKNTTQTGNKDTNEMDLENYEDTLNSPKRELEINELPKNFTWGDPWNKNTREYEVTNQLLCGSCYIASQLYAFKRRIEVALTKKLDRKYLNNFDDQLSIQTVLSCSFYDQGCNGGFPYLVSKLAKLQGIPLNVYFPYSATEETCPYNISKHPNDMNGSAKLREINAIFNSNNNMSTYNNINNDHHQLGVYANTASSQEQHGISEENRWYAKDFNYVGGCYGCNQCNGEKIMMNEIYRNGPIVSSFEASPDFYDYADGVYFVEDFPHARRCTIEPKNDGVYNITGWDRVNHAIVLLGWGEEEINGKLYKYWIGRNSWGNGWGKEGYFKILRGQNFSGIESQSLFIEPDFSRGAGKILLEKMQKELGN

| SMILES | % Inhibition @ 10 uM [%] |
| --- | --- |
| Cc1ccc2c(=O)c(C(=O)c3ccccc3)cn(CC(=O)NCCc3ccccc3)c2n1 | 3.03 |
| O=C1CC(c2ccc(Cl)c(Cl)c2)C2=C(CC(c3ccc(F)cc3)CC2=O)N1 (centres unmarked) | 3.67 |
| COc1cccc(-c2cn3c(n2)sc2cc(C(=O)NCCc4ccc(OC)cc4OC)ccc23)c1 | -1.78 |
| COc1ccc(CNc2nc(-c3cccs3)cc(C(F)(F)F)n2)cc1 | -1.31 |
| O=C1N=C(Nc2ccc(F)cc2)S/C1=C\c1cc2c(cc1Cl)OCO2 | 8.69 |
| Cc1cc(-c2ccc(C)c(S(=O)(=O)NCCc3cccs3)c2)on1 | -7.66 |
| C=CCn1c(SCC(=O)N2CCC(C)CC2)nnc1-c1ccccc1O | -3.53 |
| CC(C)N(CC#CCO)Cc1ccccc1 | -5.41 |
| Cc1cccc(Oc2ccc(C#N)c(C#N)c2)c1C | 1.63 |
| Cc1sc2ncnc(Nc3ccc(Cl)cc3Cl)c2c1C | -2.55 |
| CCOC(=O)N1CCC(N2CC(C)CC(C)C2)CC1 (centres unmarked) | -6.62 |
| O=C(NS(=O)(=O)c1cc2c(cc1Cl)NCNS2(=O)=O)c1ccc([N+](=O)[O-])cc1 | -2.15 |
| O=C(CSCc1cnn(-c2ccccc2)c1-n1cccc1)N1CCN(c2ccccn2)CC1 | -1.08 |
| CCOC(=O)c1cc(-c2ccc(F)cc2)n(CC(=O)Nc2nnc(SCC)s2)c1C | -0.176 |
| COc1ccc(C(=O)Cn2c(N(CCO)CCO)nc3c2c(=O)n(C)c(=O)n3C)cc1 | -1.46 |
| CC1(C)N=C(c2ccc(Cl)cc2Cl)C(=S)N1 | 0.559 |
| O=C(O)COc1ccc(Br)cc1 | -0.0372 |
| CCCCn1c(SCC(=O)c2ccccc2)nc2ccsc2c1=O | 3.86 |
| CCn1c2ccccc2c2cc(CN3CCN(c4ccc(OC)cc4)CC3)ccc21 | -2.81 |
| Cc1nccn1S(=O)(=O)c1cc(Cl)ccc1Cl | -1.99 |
| Cc1ccc(C)n1-c1ccc(NC(=O)c2ccccc2)cc1 | 3 |
| O=C(COc1ccc(Cl)cc1Cl)NCCc1ccccc1 | 5.02 |
| CCCCN(CCCC)CCNC(=O)C1CCN(S(=O)(=O)CC)CC1 | 3.79 |
| CC(C)c1ccc(CN2CCC(O)CC2)cc1 | 1.55 |
| CCCNC(=O)C1CCN(S(=O)(=O)c2cccc3nonc23)CC1 | -4.53 |

| SMILES | % Inhibition @ 10 uM [%] |
| --- | --- |
| O=C(NCCOc1ccc(F)cc1)c1cccc2ccccc12 | -8.38 |
| CC(=O)c1cnc2ncnn2c1C | 4.74 |
| O=C(Nc1cccnc1Cl)c1cc(-c2cccnc2)on1 | -10 |
| COc1ccc(C2C(C(=O)c3ccccc3)=C(O)C(=O)N2c2ccc(F)cc2)c(OC)c1 (centres unmarked) | -0.173 |
| Cc1ccccc1NC(=O)/C=C1/c2ccccc2CC(C)(C)N1C | -0.436 |
| N=C(Cc1cccc2ccccc12)NOC(=O)c1ccc(F)cc1 | 3.79 |
| CCCCCCN1C(=O)NC(=O)/C(=C\c2ccc(OC)cc2OC)C1=O | -5.96 |
| COc1ccc(NC(=O)c2cccc(S(=O)(=O)Nc3ccc(C(=O)O)cc3)c2)cc1 | 3.25 |
| Cc1nc2ccccc2n1CCc1nc2c3ccccc3nc(N3CCOCC3)n2n1 | 0.981 |
| CC(=O)c1c(O)cc(C)o/c1=N\c1ccccc1O | -4.41 |
| N#CC1=C2SCN(C3CCCCC3)CN2C(=O)CC1c1ccccc1F (centres unmarked) | 37.8 |
| C#CCOC(=O)c1cc([N+](=O)[O-])ccc1Cl | 3.53 |
| COc1cccc(C2C=C(c3ccc(C)cc3)Nc3ncnn32)c1OC(F)F (centres unmarked) | -3.37 |
| CCOc1ccccc1C(=O)Nc1c(-c2ccc(F)cc2)nc2ccccn12 | 0.813 |
| COc1ccc(Nc2cc(C)nc3c(C)ccc(N)c23)cc1 | -1.88 |
| Cc1cc(C)n(C(C)CC(=O)NCCc2ccccc2)n1 (centres unmarked) | -1.93 |
| COc1cc(/C=C2\SC(Nc3ccc(C)c(Cl)c3)=NC2=O)ccc1OCC(=O)O | 17.9 |
| Cc1ccc(CN2CCN(c3ccccc3F)CC2)cc1 | -3.77 |
| O=C(CCc1ccccc1)N1CCN(CCO)CC1 | 5.3 |
| COc1ccc(-c2nc3scc(CCNC(=O)c4c(F)cccc4F)n3n2)cc1 | -1.46 |
| Nc1cc(-c2ccccc2)nn1CC1CCCCC1 | 2.92 |
| CCOC(=O)c1cc(C)n(CC2CCC(C(=O)N3CCc4ccccc4C3)CC2)c1C (centres unmarked) | 0.967 |
| CC(C)c1ccc(OCC(=O)N(Cc2nc(-c3ccccc3)no2)C(C)C)c(Br)c1 | 1.1 |
| O=C(NCc1cccc(Cl)c1)c1cccn1-c1nnc(N2CCCCCC2)s1 | -6.58 |
| CC1(C)C(C=C(Cl)Cl)C1C(=O)NCCCOC(=O)Nc1ccccc1 (centres unmarked) | -9.73 |
